{"source": "PubChem BioAssay (Tox21)", "note": "Several values for one entry are separate records, joined by “and”; a condition that tells them apart may be missing. Equal values may be shown once. The inconclusive results got no clear call from the source; some entries with a clear call stand among them for comparison. Potencies beside an inconclusive call are fits to weak or partial responses and may not hold up. Where a structure was tested more than once in an assay, its records may differ in their call. Activity calls are given as the source filed them. The call rests on the fitted dose curve; in most records, active means well fitted cell-killing curve with a large enough effect in the repeat runs; inconclusive means weak or mixed curves, or effect the other way; inactive means flat fitted curve, though single readings scatter. On the % scale 0 is the no-effect control and ±100 the full control effect; potency means the concentration at half of the fitted maximal effect; tags describe the fitted curve by direction and shape."}
{"experiment": "Human pregnane X receptor (PXR) small molecule agonists, qHTS cell viability counter screen (AID 1346977); further: nearly all actives have a fitted effect of over 50% in size", "details": "PXR-Luc HepG2 viability, CellTiter-Fluor, 24 h; series mostly up to 92.4 µM", "procedure,_shortened": "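HepG2 cells stably carrying the PXR-Luc reporter are cultured with 5% charcoal-stripped FBS and treated with compounds for 24hr. CellTiter-Fluor is added at 23hr and fluorescence is read after 1hr.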"}
{"smiles": "CC(C)(C)N(NC(=O)c1ccc(Cl)cc1)C(=O)c1ccccc1", "Potency": "inconclusive: 9.63 µM [cytotoxic, full curve]"}
{"smiles": "COP(=S)(OC)Oc1cc(Cl)c(Br)cc1Cl", "Potency": "inconclusive: 68.6 µM [cytotoxic, single point]"}
{"smiles": "N#CC(C#N)=C(C#N)C#N", "Potency": "inconclusive: 35.9 µM [cytotoxic, partial curve]"}
{"smiles": "O=C(OC1CCCCC1)c1ccccc1C(=O)OC1CCCCC1", "Potency": "inconclusive: 64.4 µM [cytotoxic]"}
{"smiles": "O=[N+]([O-])c1cc(C(F)(F)F)cc([N+](=O)[O-])c1Cl", "Potency": "inconclusive: 30.8 µM [cytotoxic, partial curve]"}
{"smiles": "O=C(Nc1ccccc1)Nc1cnns1", "Potency": "inconclusive: 54.4 µM [cytotoxic, partial curve, poor fit]"}
{"smiles": "CCN(CC)C(=O)[C@@H]1C=C2c3cccc4[nH]cc(c34)C[C@H]2N(C)C1", "Potency": "inconclusive: 89.8 µM [cytotoxic, partial curve]"}
{"smiles": "Cc1ccc(C)c2ccccc12", "Potency": "inactive"}
{"smiles": "Cc1ccccc1OP(=O)(Oc1ccccc1C)Oc1ccccc1C", "Potency": "inconclusive: 48.8 µM [cytotoxic, partial curve]"}
{"smiles": "O=Cc1ccco1", "Potency": "inconclusive: 77 µM [rising, partial curve, poor fit]"}
{"smiles": "CC(C)(C)c1cc([N+](=O)[O-])cc(C(C)(C)C)c1O", "Potency": "active: 5.45 µM"}
{"smiles": "CCn1cc[n+](C)c1", "Potency": "active: 54.5 µM"}
{"smiles": "O=[N+]([O-])[O-].[Tl+]", "Potency": "inconclusive: 48.9 µM [cytotoxic, partial curve]"}
{"smiles": "CCCCCCn1cc[n+](C)c1", "Potency": "inconclusive: 16 µM [cytotoxic, partial curve] [middle of 5 runs]"}
{"smiles": "ClCc1ccccc1CCl", "Potency": "inactive"}
{"smiles": "Oc1ccc([C@H]2CNCc3c2ccc(O)c3O)cc1O", "Potency": "inconclusive: 29.8 µM [cytotoxic]"}
{"smiles": "Oc1ccc(Cl)c(Cl)c1", "Potency": "inactive"}
{"smiles": "CN(C)c1ccc(N(C)C)cc1", "Potency": "inconclusive: 30.7 µM [cytotoxic, full curve, poor fit]"}
{"smiles": "COP(=S)(OC)SCN1C(=O)c2ccccc2C1=O", "Potency": "inactive"}
{"smiles": "O=[N+]([O-])c1cccc2cccc([N+](=O)[O-])c12", "Potency": "inconclusive: 68.9 µM [cytotoxic, partial curve, poor fit]"}
{"smiles": "Cc1cc(Cl)ccc1N=CN(C)C", "Potency": "inactive"}
{"smiles": "CCN(CC)C(=O)C(C)Oc1cccc2ccccc12", "note": "(centres undefined)", "Potency": "inconclusive: 68.6 µM [cytotoxic, single point]"}
{"smiles": "CC(Cc1ccc2c(c1)OCO2)NO", "note": "(centres undefined)", "Potency": "inactive"}
{"smiles": "COc1ccc2c(c1OC)C(=O)O[C@@H]2[C@H]1c2cc3c(cc2CCN1C)OCO3", "Potency": "inconclusive: 4.28 µM [cytotoxic, full curve]"}
{"smiles": "CC(C)CCCCCOC(=O)c1ccccc1C(=O)OCCCCCC(C)C", "Potency": "inconclusive: 67.8 µM [cytotoxic, single point]"}
{"smiles": "C=CCc1ccc2c(c1)OCO2", "Potency": "inactive"}
{"smiles": "Oc1ccc2[nH]cc(CCCCN3CC=C(c4ccccc4)CC3)c2c1", "Potency": "inconclusive: 33.5 µM [cytotoxic]"}
{"smiles": "CCCCCOC(=O)c1ccccc1C(=O)OCCCCC", "Potency": "inactive"}
{"smiles": "COP(=S)(OC)Oc1ccc(Sc2ccc(OP(=S)(OC)OC)cc2)cc1", "Potency": "inconclusive: 77 µM [cytotoxic, single point]"}
{"smiles": "CC(C)N(C(=O)COc1nnc(C(F)(F)F)s1)c1ccc(F)cc1", "Potency": "inactive"}
{"smiles": "Cn1c(N)nc2c3cccnc3ccc21", "Potency": "active: 26 µM"}
{"smiles": "CC(Cl)(Cl)C(=O)O", "Potency": "inconclusive: 70.8 µM [cytotoxic, single point]"}
{"smiles": "COC(=O)c1cncn1C(C)c1ccccc1", "note": "(centres undefined)", "Potency": "inactive"}
{"smiles": "NNc1ccccc1", "Potency": "inconclusive: 70.8 µM [cytotoxic, partial curve, poor fit]"}
{"smiles": "CC(Cl)C(C)Cl", "note": "(centres undefined)", "Potency": "inactive"}
{"smiles": "CCC(OC(C)=O)C(CC(C)NC)(c1ccccc1)c1ccccc1", "note": "(centres undefined)", "Potency": "active: 27.5 µM"}
{"smiles": "O=C1C[C@@H]2OCC=C3CN4CC[C@]56c7ccccc7N1[C@H]5[C@H]2[C@H]3C[C@H]46", "Potency": "inconclusive: 26.6 µM [cytotoxic, partial curve]"}
{"smiles": "CCC(=O)C(CC(C)N(C)C)(c1ccccc1)c1ccccc1", "note": "(centres undefined)", "Potency": "inconclusive: 35.5 µM [cytotoxic, partial curve] and inconclusive: 37 µM [cytotoxic, partial curve]"}
{"smiles": "CC1=C2C[C@H]3[C@@H](CC=C4C[C@@H](O)CC[C@@]43C)[C@@H]2CC[C@]12O[C@@H]1C[C@H](C)CN[C@H]1[C@H]2C", "Potency": "inconclusive: 11.9 µM [cytotoxic]"}
